Measured values taken from PubChem BioAssay AID624170 (National Center for Advancing Translational Sciences (NCATS), 2012).
In all, about 410,000 compounds went through this assay and about 850 (0.21%) were called active. The inconclusive results got no clear call from the source; some entries with a clear call stand among them for comparison. Calls come from the whole dose curve; as a rule, active = well fitted inhibition curve with a large enough effect; inconclusive = small, poorly fitted or top-dose-only effect, or another doubt; inactive = no such curve, though single readings can be large or run the other way. No potency is given beside an inconclusive call; the fits are too rough.

Biological target: Glutaminase kidney isoform, mitochondrial (Homo sapiens) (UniProt O94925)
Sequence of UniProt O94925 (O94925 whole entry, looked up, canonical isoform): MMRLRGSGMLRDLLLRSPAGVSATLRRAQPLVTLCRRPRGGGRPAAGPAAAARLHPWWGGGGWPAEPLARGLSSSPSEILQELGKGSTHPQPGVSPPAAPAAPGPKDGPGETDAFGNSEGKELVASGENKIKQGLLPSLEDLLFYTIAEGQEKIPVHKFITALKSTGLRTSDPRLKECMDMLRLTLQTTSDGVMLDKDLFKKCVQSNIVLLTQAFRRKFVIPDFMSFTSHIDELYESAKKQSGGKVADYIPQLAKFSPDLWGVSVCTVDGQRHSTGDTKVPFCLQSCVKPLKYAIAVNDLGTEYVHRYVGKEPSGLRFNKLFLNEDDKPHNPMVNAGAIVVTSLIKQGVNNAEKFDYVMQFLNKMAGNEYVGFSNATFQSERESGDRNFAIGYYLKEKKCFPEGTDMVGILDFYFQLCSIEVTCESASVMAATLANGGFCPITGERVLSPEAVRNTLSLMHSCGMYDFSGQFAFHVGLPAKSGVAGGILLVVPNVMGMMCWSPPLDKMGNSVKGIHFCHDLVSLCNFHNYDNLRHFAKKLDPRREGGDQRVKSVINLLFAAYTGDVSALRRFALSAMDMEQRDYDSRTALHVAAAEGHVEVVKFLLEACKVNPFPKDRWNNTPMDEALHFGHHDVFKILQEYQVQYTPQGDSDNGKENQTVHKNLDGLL
Assay: qHTS for Inhibitors of Glutaminase (GLS)
Conditions: GLS enzymatic activity, qHTS titration; series mostly up to 45.5 µM; activity change, negative = inhibition: at the top concentration
Method in brief: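 Read-out is an Amplex red fluorescence increase coupled through glutamate oxidase and HRP, measured before and after 30 min room-temperature incubation. hKGA is in 45 mM KH2PO4 (pH 8.2) with 0.02% Tween-20; glutamine added as 1mM solution.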
% is set by controls: 0 for no effect and ±100 for the full control effect; potency is the fitted concentration of half-maximal effect; tags give direction and shape of the fitted curve.

SMILES	Potency	activity change, negative = inhibition
COc1ccc2[nH]c(CN3CCC(CO)(CCOc4ccccc4)CC3)c(C)c2c1	inconclusive [inhibitor, single point]	
Cc1ccc(Cl)cc1NC(=O)Nc1cccs1	inconclusive [inhibitor, partial curve, poor fit]	
CCCCOC(=O)c1ccc(NC(=O)c2cc3c(=O)n4cccc(C)c4nc3n2C)cc1		inactive: -3.51%
O=C(CCN1C(=O)COc2ccccc21)NCCN1CCN(c2ccccc2F)CC1	inconclusive [inhibitor, single point]	
COc1ccc(NC(=O)c2cc(-c3ccco3)nc3ccccc23)cc1S(=O)(=O)N1CCOCC1	inconclusive [inhibitor, partial curve, poor fit]	
Cc1ccc(C(=O)c2cc(C)sc2N)cc1	inconclusive [inhibitor, partial curve]	
COCCCN(C(=S)NC(=O)c1ccc(Br)cc1)c1c(N)n(Cc2ccccc2)c(=O)[nH]c1=O		inactive: 5.8%
COc1ccc(C(=O)c2c(N)sc3c2CCN(C)C3)cc1	inconclusive [inhibitor, single point]	
Cc1cccnc1Nc1nc(-c2ccc(O)c(O)c2)cs1	inconclusive [inhibitor, single point]	
Cc1c(C2=CCN(S(=O)(=O)c3ccc(CC(C)C)cc3)CC2)c2ccccc2n1CC(=O)N1CCCC1	inconclusive [inhibitor, partial curve, poor fit]	
COc1cc(-c2n[nH]c(=S)n2/N=C/c2cccn2C)cc(OC)c1OC	inconclusive [inhibitor, single point]	
Cc1cc(C)cc(NC(=S)NN)c1	inconclusive [inhibitor, single point]	
N[C@@H](C(=O)N[C@@H]1C(=O)N2C(C(=O)O)=C(CSc3cn[nH]n3)CS[C@H]12)c1ccc(O)cc1	active: 6.31 µM	
COC(=O)C1=C(C)N(c2cccc3ccccc23)C(=O)C1	inconclusive [inhibitor, single point]	
CCCCCCCCN1C(=O)[C@H](CC(=O)NCCCOCCCC)C[C@@]2(C(=O)OCC)CCCC=C12		inactive: 2.43%
CC(=O)Nc1nc2n(n1)C(c1ccc(F)cc1)C=C(c1ccccc1)N2 (centres undefined)	inconclusive [inhibitor, partial curve]	
CC(=O)/C(=C/c1ccccc1)C(=O)Nc1ccccc1C		inactive: -14.5%
Oc1ccc(N=Nc2ccc3c(c2)OCCO3)c2cccnc12	inconclusive [inhibitor, full curve, poor fit]	
COC(=O)c1sc(NC(=O)COc2ccc(OC)cc2)nc1C		inactive: -0.0168%
Cc1cc(OCc2nn[nH]n2)c2c(C)c(Cc3ccccc3)c(=O)oc2c1	inconclusive [inhibitor, single point]	
CC(=O)Oc1oc(-c2ccccc2)nc1C=Nc1ccccc1	inconclusive [inhibitor, single point]	
CCOC(=O)C1CCN(C(=O)C2(NC(=O)Nc3cccc(F)c3)CCCCC2)CC1	inconclusive [inhibitor, partial curve, poor fit]	

SMILES	Potency	activity change, negative = inhibition
CC(=O)c1ccc(NC(=O)C(Cc2ccccc2)n2cccc2)cc1 (centres undefined)	inconclusive [inhibitor, single point]	
CCOC(=O)N1CCC(N2CCN(S(=O)(=O)c3ccc(NC(C)=O)cc3)CC2)CC1	inconclusive [inhibitor, partial curve, poor fit]	
CN(C(=O)CSc1nncn1-c1ccccc1)c1ccccc1	inconclusive [inhibitor, full curve, poor fit]	
O=C(c1cc2c(s1)CCCC2)N1CCN(Cc2ccc3c(c2)OCO3)CC1		inactive: -4.2%
Cc1cc(=O)n2nc(N3CCCC(C(=O)NC(C)c4ccccc4)C3)sc2n1 (centres undefined)	inconclusive [inhibitor, single point]	
O=C(C1CCN(S(=O)(=O)c2cnc[nH]2)CC1)N1CCN(Cc2ccc3c(c2)OCO3)CC1	inconclusive [inhibitor, single point]	
CC(C)OCCCNC(=O)c1sc(=S)n(C)c1N	inconclusive [inhibitor, partial curve]	
Cc1cc(C)nc(NNC2=CC(=[N+]3CCCC3)CCC2)n1	inconclusive [inhibitor, partial curve]	
CC(=O)N/C(=C\c1ccccc1)C(=O)Nc1ccc(O)cc1	inconclusive [inhibitor, single point]	
CCOc1ccc(-c2cc(C(=O)Nc3ccc(F)cc3)[nH]n2)c(C)c1		inactive: -0.715%
Cc1ccccc1-c1n[nH]c(=S)n1/N=C/c1c(C)nn(-c2ccccc2)c1C	inconclusive [inhibitor, partial curve, poor fit]	
CC(=O)Nc1cc(O)cc(O)c1	inconclusive [inhibitor, single point]	
CCOc1ccccc1CNC(=O)c1ccc(NC(=O)N2CCSc3ncccc32)cc1		inactive: 2.11%
O=c1oc2cc(O)ccc2c2oc3cc(O)ccc3c12	active: 7.94 µM	
CCn1c(-c2nn(-c3ccc(C)cc3)ccc2=O)n[nH]c1=S		inactive: 5.24%
Cc1n[nH]c(=O)c2c(NC(=O)CSc3nnnn3-c3ccc(O)cc3)oc(C)c12	inconclusive [inhibitor, partial curve]	
S=c1[nH]cc(-c2ccc(Cl)cc2)n1-c1ccccc1	inconclusive [inhibitor, full curve, poor fit]	
Cc1ccc(NC(=O)CN2C(=O)N/C(=C/c3cccn3-c3ccc(C(=O)O)cc3)C2=O)cc1	active: 5.01 µM	
O=S(=O)(/N=C(/Sc1ccccc1)c1ccccc1)c1ccccc1		inactive: 2.53%
O=C(CSc1ncnc2sccc12)N1CCCCC1		inactive: -1.22%
C=C(C1=CCN(S(=O)C(C)(C)C)[C@H]1CCO)c1ccccc1 (some centres undefined)		inactive: -1.18%
NS(=O)(=O)c1ccc(-c2ccc(/C=N/NC(=O)c3ccccc3O)o2)cc1		inactive: 6.93%
